Results are given in words; binding and its absence hold for the method and conditions named. In cells and extracts the contact can be indirect. Some entries that bind do so weakly or less than the wild type.
Legend:
[1] = biological target: C-terminally Flag-tagged Cav2.3 (UniProt Q07652); assay: co-IP; total cell lysates of transfected HEK293T cells in NETN buffer (100 mM NaCl, 1 mM EDTA, 0.5% Nonidet P-40, 20 mM Tris-HCl, pH 7.4); immunoprecipitation with anti-Cav2.3 (ACC-006), 16 hr at 4°C, protein-A/G agarose; blot with anti-Flag
[2] = biological target: rat Cav2.3 (pore forming α-subunit) (rat) (UniProt Q07652); assay: co-IP; total membrane and plasma membrane extracts of HEK293T cells transfected with rat Cav2.3, β3, α2δ1 and Flag-KCTD, solubilized in 0.5% Nonidet P-40; immunoprecipitation with anti-Cav2.3 (ACC-006), 16 hr at 4°C; blot with anti-KCTD8 or anti-Flag

Sequences of proteins named here, by UniProt entry; tags and fusion partners are left off.
UniProt Q07652: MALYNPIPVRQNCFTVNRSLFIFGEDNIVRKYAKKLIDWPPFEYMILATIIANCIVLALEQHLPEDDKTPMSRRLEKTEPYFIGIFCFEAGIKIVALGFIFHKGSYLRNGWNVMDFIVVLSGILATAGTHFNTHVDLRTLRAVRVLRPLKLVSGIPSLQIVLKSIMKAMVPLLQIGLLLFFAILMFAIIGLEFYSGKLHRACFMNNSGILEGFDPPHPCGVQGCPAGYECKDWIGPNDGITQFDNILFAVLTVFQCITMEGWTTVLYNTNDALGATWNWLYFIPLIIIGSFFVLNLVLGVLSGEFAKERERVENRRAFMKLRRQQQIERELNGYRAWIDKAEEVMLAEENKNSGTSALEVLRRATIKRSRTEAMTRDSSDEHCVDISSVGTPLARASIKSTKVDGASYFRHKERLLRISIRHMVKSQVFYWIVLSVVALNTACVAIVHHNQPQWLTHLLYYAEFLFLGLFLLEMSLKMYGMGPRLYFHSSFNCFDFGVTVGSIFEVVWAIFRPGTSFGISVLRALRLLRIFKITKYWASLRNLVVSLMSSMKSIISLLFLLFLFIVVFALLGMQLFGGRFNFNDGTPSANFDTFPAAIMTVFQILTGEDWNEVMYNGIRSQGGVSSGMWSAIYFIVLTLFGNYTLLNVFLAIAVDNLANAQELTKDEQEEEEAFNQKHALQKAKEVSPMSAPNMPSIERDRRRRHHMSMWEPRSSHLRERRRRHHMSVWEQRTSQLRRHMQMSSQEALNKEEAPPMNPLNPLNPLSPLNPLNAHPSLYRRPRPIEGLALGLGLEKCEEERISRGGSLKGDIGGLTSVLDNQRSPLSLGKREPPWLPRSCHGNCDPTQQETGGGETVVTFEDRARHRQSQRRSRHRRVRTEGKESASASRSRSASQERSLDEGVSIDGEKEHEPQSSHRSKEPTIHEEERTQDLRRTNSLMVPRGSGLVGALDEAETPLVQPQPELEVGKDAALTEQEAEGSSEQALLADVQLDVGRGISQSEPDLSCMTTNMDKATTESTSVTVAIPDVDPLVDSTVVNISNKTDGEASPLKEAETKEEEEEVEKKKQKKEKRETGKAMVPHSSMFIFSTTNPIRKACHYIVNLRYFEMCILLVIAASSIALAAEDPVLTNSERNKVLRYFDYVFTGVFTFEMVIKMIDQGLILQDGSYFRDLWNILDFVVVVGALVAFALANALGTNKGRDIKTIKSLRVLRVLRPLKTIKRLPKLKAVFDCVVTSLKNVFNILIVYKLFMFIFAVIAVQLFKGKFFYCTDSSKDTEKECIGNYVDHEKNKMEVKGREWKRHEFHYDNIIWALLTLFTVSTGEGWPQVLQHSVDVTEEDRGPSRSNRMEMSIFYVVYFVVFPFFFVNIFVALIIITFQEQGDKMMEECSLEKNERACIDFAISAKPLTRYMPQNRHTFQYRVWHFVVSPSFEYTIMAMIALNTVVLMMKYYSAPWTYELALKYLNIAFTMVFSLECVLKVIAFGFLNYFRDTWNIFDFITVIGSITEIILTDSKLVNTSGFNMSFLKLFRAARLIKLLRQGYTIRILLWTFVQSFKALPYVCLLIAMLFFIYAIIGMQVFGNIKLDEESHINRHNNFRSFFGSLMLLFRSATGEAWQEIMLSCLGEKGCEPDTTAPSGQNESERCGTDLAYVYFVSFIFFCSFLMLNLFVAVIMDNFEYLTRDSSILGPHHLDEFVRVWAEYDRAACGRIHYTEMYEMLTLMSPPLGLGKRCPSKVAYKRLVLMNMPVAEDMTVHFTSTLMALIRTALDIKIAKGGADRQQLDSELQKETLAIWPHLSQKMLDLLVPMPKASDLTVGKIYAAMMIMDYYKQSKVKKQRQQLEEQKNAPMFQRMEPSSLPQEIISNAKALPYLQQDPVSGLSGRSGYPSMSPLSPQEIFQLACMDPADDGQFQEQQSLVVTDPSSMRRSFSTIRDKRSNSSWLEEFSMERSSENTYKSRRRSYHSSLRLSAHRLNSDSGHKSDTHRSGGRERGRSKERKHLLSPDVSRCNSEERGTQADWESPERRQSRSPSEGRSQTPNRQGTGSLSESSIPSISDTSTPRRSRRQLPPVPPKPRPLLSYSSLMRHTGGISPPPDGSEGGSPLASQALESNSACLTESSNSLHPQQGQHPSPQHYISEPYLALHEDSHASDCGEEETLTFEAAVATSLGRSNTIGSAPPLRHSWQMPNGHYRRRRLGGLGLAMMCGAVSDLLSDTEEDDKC
UniProt Q6WVG3: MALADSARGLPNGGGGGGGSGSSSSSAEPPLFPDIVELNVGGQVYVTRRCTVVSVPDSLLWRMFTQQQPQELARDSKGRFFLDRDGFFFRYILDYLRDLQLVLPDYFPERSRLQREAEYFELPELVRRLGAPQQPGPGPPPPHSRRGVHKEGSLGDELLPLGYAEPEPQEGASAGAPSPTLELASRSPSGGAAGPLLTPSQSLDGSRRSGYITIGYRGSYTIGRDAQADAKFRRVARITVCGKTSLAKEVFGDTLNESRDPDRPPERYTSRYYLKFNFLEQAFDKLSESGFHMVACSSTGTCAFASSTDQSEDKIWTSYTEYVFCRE

Row | Substance | binding [1] | binding [2]
1 | N-terminally Flag-tagged KCTD8 (from UniProt Q50H33-1 1-476) | binds | binds
2 | N-terminally Flag-tagged KCTD12b (from UniProt Q8C7J6 1-292) | binds | binds
3 | N-terminally Flag-tagged KCTD12 (from UniProt Q6WVG3 1-327) | no binding | –

From publication PMC8121548
